± gives the standard deviation of the averaged measurements. Restriction of a single-cycle SIVsab GFP reporter by TRIM5α v1-loop variants in CRFK cells. Human variants: read share among cells still uninfected after two challenges over input, higher = gained restriction. Rhesus variants: share among infected cells over input, higher = lost restriction. Reporter dose not given per row. No active / inactive call per row; the paper calls a change when both replicates lie above its controls (mean + 2 SD of stop or wild-type variants, or the top frameshift score). Residues outside the varied loop are taken from Swiss-Prot. The paper reads the human single-substitution scores as noise; they and the rhesus combinations repeat poorly (rank correlation 0.3 to 0.4), indel scores repeat only for the top variants, rhesus substitutions well (0.9).
Tested on: SIVsab (simian immunodeficiency virus of sabaeus monkeys), single-cycle GFP reporter, in CRFK cells
Experiment: enrichment among uninfected cells over input (fold); higher = stronger restriction
Conditions: library: human / rhesus combinations
Method: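 Pools of CRFK cells expressing variants of the TRIM5α v1 loop were challenged with the single-cycle reporter, sorted by GFP and sequenced; mean of two replicates.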

| Sequence | enrichment |
| --- | --- |
| MASGILVNVKEEVTCPICLELLTQPLSLDCGHSFCQACLTANHKKSMLDKGESSCPVCRISYQPENIRPNRHVANIVEKLREVKLSPEGQKVDHCARHGEKLLLFCQEDGKVICWLCERSQEHRGHHTFLTEEVAREYQVKLQAALEMLRQKQQEAEELEADIREEKASWKTQIQYDKTNVLADFEQLRDILDWEESNELQNLEKEEEDILKSLTNSETEMVQQTQSLRELISDLEHRLQGSVMELLQGVDGVIKRTENVTLKKPETFPKNQRRVFRAPDLKGMLEVFRELTDVRRYWVDVTVAPNNISCAVISEDKRQVSSPKPQIIYQAPGTLFTFPSFTNFNYCTGILGSQSITSGKHYWEVDVSKKTAWILGVCAGFQPDAMCNIEKNENYQPKYGYWVIGLEEGVKCSAFQDSSFHTPSVPFIVPLSVIICPDRVGVFLDYEACTVSFFNITNHGFLIYKFSHCSFSQPVFPYLNPRKCGVPMTLCSPSS [human TRIM5α, 330-340 = QAPGTLFTFPSFT] | 37 ± 8 |
| MASGILVNVKEEVTCPICLELLTQPLSLDCGHSFCQACLTANHKKSMLDKGESSCPVCRISYQPENIRPNRHVANIVEKLREVKLSPEGQKVDHCARHGEKLLLFCQEDGKVICWLCERSQEHRGHHTFLTEEVAREYQVKLQAALEMLRQKQQEAEELEADIREEKASWKTQIQYDKTNVLADFEQLRDILDWEESNELQNLEKEEEDILKSLTNSETEMVQQTQSLRELISDLEHRLQGSVMELLQGVDGVIKRTENVTLKKPETFPKNQRRVFRAPDLKGMLEVFRELTDVRRYWVDVTVAPNNISCAVISEDKRQVSSPKPQIIYQARGTLYTFQTFVNFNYCTGILGSQSITSGKHYWEVDVSKKTAWILGVCAGFQPDAMCNIEKNENYQPKYGYWVIGLEEGVKCSAFQDSSFHTPSVPFIVPLSVIICPDRVGVFLDYEACTVSFFNITNHGFLIYKFSHCSFSQPVFPYLNPRKCGVPMTLCSPSS [human TRIM5α, 330-340 = QARGTLYTFQTFV] | 0.0548 ± 0.022 |
| MASGILVNVKEEVTCPICLELLTQPLSLDCGHSFCQACLTANHKKSMLDKGESSCPVCRISYQPENIRPNRHVANIVEKLREVKLSPEGQKVDHCARHGEKLLLFCQEDGKVICWLCERSQEHRGHHTFLTEEVAREYQVKLQAALEMLRQKQQEAEELEADIREEKASWKTQIQYDKTNVLADFEQLRDILDWEESNELQNLEKEEEDILKSLTNSETEMVQQTQSLRELISDLEHRLQGSVMELLQGVDGVIKRTENVTLKKPETFPKNQRRVFRAPDLKGMLEVFRELTDVRRYWVDVTVAPNNISCAVISEDKRQVSSPKPQIIYQAPGTRYTFPSFVNFNYCTGILGSQSITSGKHYWEVDVSKKTAWILGVCAGFQPDAMCNIEKNENYQPKYGYWVIGLEEGVKCSAFQDSSFHTPSVPFIVPLSVIICPDRVGVFLDYEACTVSFFNITNHGFLIYKFSHCSFSQPVFPYLNPRKCGVPMTLCSPSS [human TRIM5α, 330-340 = QAPGTRYTFPSFV] | 0.191 ± 0.084 |
| MASGILVNVKEEVTCPICLELLTQPLSLDCGHSFCQACLTANHKKSMLDKGESSCPVCRISYQPENIRPNRHVANIVEKLREVKLSPEGQKVDHCARHGEKLLLFCQEDGKVICWLCERSQEHRGHHTFLTEEVAREYQVKLQAALEMLRQKQQEAEELEADIREEKASWKTQIQYDKTNVLADFEQLRDILDWEESNELQNLEKEEEDILKSLTNSETEMVQQTQSLRELISDLEHRLQGSVMELLQGVDGVIKRTENVTLKKPETFPKNQRRVFRAPDLKGMLEVFRELTDVRRYWVDVTVAPNNISCAVISEDKRQVSSPKPQIIYGAPGTRFTFQSLVNFNYCTGILGSQSITSGKHYWEVDVSKKTAWILGVCAGFQPDAMCNIEKNENYQPKYGYWVIGLEEGVKCSAFQDSSFHTPSVPFIVPLSVIICPDRVGVFLDYEACTVSFFNITNHGFLIYKFSHCSFSQPVFPYLNPRKCGVPMTLCSPSS [human TRIM5α, 330-340 = GAPGTRFTFQSLV] | 0.106 ± 0.024 |

Same assay, conditions: library: insertions and deletions

| Sequence | enrichment |
| --- | --- |
| MASGILVNVKEEVTCPICLELLTQPLSLDCGHSFCQACLTANHKKSMLDKGESSCPVCRISYQPENIRPNRHVANIVEKLREVKLSPEGQKVDHCARHGEKLLLFCQEDGKVICWLCERSQEHRGHHTFLTEEVAREYQVKLQAALEMLRQKQQEAEELEADIREEKASWKTQIQYDKTNVLADFEQLRDILDWEESNELQNLEKEEEDILKSLTNSETEMVQQTQSLRELISDLEHRLQGSVMELLQGVDGVIKRTENVTLKKPETFPKNQRRVFRAPDLKGMLEVFRELTDVRRYWVDVTVAPNNISCAVISEDKRQVSSPKPQIIYGARGTVNFNYCTGILGSQSITSGKHYWEVDVSKKTAWILGVCAGFQPDAMCNIEKNENYQPKYGYWVIGLEEGVKCSAFQDSSFHTPSVPFIVPLSVIICPDRVGVFLDYEACTVSFFNITNHGFLIYKFSHCSFSQPVFPYLNPRKCGVPMTLCSPSS [human TRIM5α, 5-codon deletion at 335] | 0.91 ± 0.77 |
| MASGILVNVKEEVTCPICLELLTQPLSLDCGHSFCQACLTANHKKSMLDKGESSCPVCRISYQPENIRPNRHVANIVEKLREVKLSPEGQKVDHCARHGEKLLLFCQEDGKVICWLCERSQEHRGHHTFLTEEVAREYQVKLQAALEMLRQKQQEAEELEADIREEKASWKTQIQYDKTNVLADFEQLRDILDWEESNELQNLEKEEEDILKSLTNSETEMVQQTQSLRELISDLEHRLQGSVMELLQGVDGVIKRTENVTLKKPETFPKNQRRVFRAPDLKGMLEVFRELTDVRRYWVDVTVAPNNISCAVISEDKRQVSSPKPQIIYGAYQTFVNFNYCTGILGSQSITSGKHYWEVDVSKKTAWILGVCAGFQPDAMCNIEKNENYQPKYGYWVIGLEEGVKCSAFQDSSFHTPSVPFIVPLSVIICPDRVGVFLDYEACTVSFFNITNHGFLIYKFSHCSFSQPVFPYLNPRKCGVPMTLCSPSS [human TRIM5α, 4-codon deletion at 332] | 0.551 ± 0.046 |
| MASGILVNVKEEVTCPICLELLTQPLSLDCGHSFCQACLTANHKKSMLDKGESSCPVCRISYQPENIRPNRHVANIVEKLREVKLSPEGQKVDHCARHGEKLLLFCQEDGKVICWLCERSQEHRGHHTFLTEEVAREYQVKLQAALEMLRQKQQEAEELEADIREEKASWKTQIQYDKTNVLADFEQLRDILDWEESNELQNLEKEEEDILKSLTNSETEMVQQTQSLRELISDLEHRLQGSVMELLQGVDGVIKRTENVTLKKPETFPKNQRRVFRAPDLKGMLEVFRELTDVRRYWVDVTVAPNNISCAVISEDKRQVSSPKPQIQTFVNFNYCTGILGSQSITSGKHYWEVDVSKKTAWILGVCAGFQPDAMCNIEKNENYQPKYGYWVIGLEEGVKCSAFQDSSFHTPSVPFIVPLSVIICPDRVGVFLDYEACTVSFFNITNHGFLIYKFSHCSFSQPVFPYLNPRKCGVPMTLCSPSS [human TRIM5α, 9-codon deletion at 328] | 1.4 ± 0.73 |
| MASGILVNVKEEVTCPICLELLTQPLSLDCGHSFCQACLTANHKKSMLDKGESSCPVCRISYQPENIRPNRHVANIVEKLREVKLSPEGQKVDHCARHGEKLLLFCQEDGKVICWLCERSQEHRGHHTFLTEEVAREYQVKLQAALEMLRQKQQEAEELEADIREEKASWKTQIQYDKTNVLADFEQLRDILDWEESNELQNLEKEEEDILKSLTNSETEMVQQTQSLRELISDLEHRLQGSVMELLQGVDGVIKRTENVTLKKPETFPKNQRRVFRAPDLKGMLEVFRELTDVRRYWVDVTVAPNNISCAVISEDKRQVSSPKPQIIYGARGTRYQTFVNFNYCQTFVNFNYCTGILGSQSITSGKHYWEVDVSKKTAWILGVCAGFQPDAMCNIEKNENYQPKYGYWVIGLEEGVKCSAFQDSSFHTPSVPFIVPLSVIICPDRVGVFLDYEACTVSFFNITNHGFLIYKFSHCSFSQPVFPYLNPRKCGVPMTLCSPSS [human TRIM5α, 9-codon duplication at 337] | 1.76 ± 1.9 |
| MASGILVNVKEEVTCPICLELLTQPLSLDCGHSFCQACLTANHKKSMLDKGESSCPVCRISYQPENIRPNRHVANIVEKLREVKLSPEGQKVDHCARHGEKLLLFCQEDGKVICWLCERSQEHRGHHTFLTEEVAREYQVKLQAALEMLRQKQQEAEELEADIREEKASWKTQIQYDKTNVLADFEQLRDILDWEESNELQNLEKEEEDILKSLTNSETEMVQQTQSLRELISDLEHRLQGSVMELLQGVDGVIKRTENVTLKKPETFPKNQRRVFRAPDLKGMLEVFRELTDVRRYWVDVTVAPNNISCAVISEDKRQVSSPKPQIIYFVNFNYCTGILGSQSITSGKHYWEVDVSKKTAWILGVCAGFQPDAMCNIEKNENYQPKYGYWVIGLEEGVKCSAFQDSSFHTPSVPFIVPLSVIICPDRVGVFLDYEACTVSFFNITNHGFLIYKFSHCSFSQPVFPYLNPRKCGVPMTLCSPSS [human TRIM5α, 9-codon deletion at 330] | 0.919 ± 0.25 |
| MASGILVNVKEEVTCPICLELLTQPLSLDCGHSFCQACLTANHKKSMLDKGESSCPVCRISYQPENIRPNRHVANIVEKLREVKLSPEGQKVDHCARHGEKLLLFCQEDGKVICWLCERSQEHRGHHTFLTEEVAREYQVKLQAALEMLRQKQQEAEELEADIREEKASWKTQIQYDKTNVLADFEQLRDILDWEESNELQNLEKEEEDILKSLTNSETEMVQQTQSLRELISDLEHRLQGSVMELLQGVDGVIKRTENVTLKKPETFPKNQRRVFRAPDLKGMLEVFRELTDVRRYWVDVTVAPNNISCAVISEDKRQVSSPKPQIIYGARGTRYQTFVNFNYCTFVNFNYCTGILGSQSITSGKHYWEVDVSKKTAWILGVCAGFQPDAMCNIEKNENYQPKYGYWVIGLEEGVKCSAFQDSSFHTPSVPFIVPLSVIICPDRVGVFLDYEACTVSFFNITNHGFLIYKFSHCSFSQPVFPYLNPRKCGVPMTLCSPSS [human TRIM5α, 8-codon duplication at 338] | 0.564 ± 0.28 |
| MASGILVNVKEEVTCPICLELLTQPLSLDCGHSFCQACLTANHKKSMLDKGESSCPVCRISYQPENIRPNRHVANIVEKLREVKLSPEGQKVDHCARHGEKLLLFCQEDGKVICWLCERSQEHRGHHTFLTEEVAREYQVKLQAALEMLRQKQQEAEELEADIREEKASWKTQIQYDKTNVLADFEQLRDILDWEESNELQNLEKEEEDILKSLTNSETEMVQQTQSLRELISDLEHRLQGSVMELLQGVDGVIKRTENVTLKKPETFPKNQRRVFRAPDLKGMLEVFRELTDVRRYWVDVTVAPNNISCAVISEDKRQVSSPKPQIIYGARGTRYRGTRYQTFVNFNYCTGILGSQSITSGKHYWEVDVSKKTAWILGVCAGFQPDAMCNIEKNENYQPKYGYWVIGLEEGVKCSAFQDSSFHTPSVPFIVPLSVIICPDRVGVFLDYEACTVSFFNITNHGFLIYKFSHCSFSQPVFPYLNPRKCGVPMTLCSPSS [human TRIM5α, 5-codon duplication at 332] | 0.486 ± 0.064 |
| MASGILVNVKEEVTCPICLELLTQPLSLDCGHSFCQACLTANHKKSMLDKGESSCPVCRISYQPENIRPNRHVANIVEKLREVKLSPEGQKVDHCARHGEKLLLFCQEDGKVICWLCERSQEHRGHHTFLTEEVAREYQVKLQAALEMLRQKQQEAEELEADIREEKASWKTQIQYDKTNVLADFEQLRDILDWEESNELQNLEKEEEDILKSLTNSETEMVQQTQSLRELISDLEHRLQGSVMELLQGVDGVIKRTENVTLKKPETFPKNQRRVFRAPDLKGMLEVFRELTDVRRYWVDVTVAPNNISCAVISEDKRQVSSPKPQIIYTFVNFNYCTGILGSQSITSGKHYWEVDVSKKTAWILGVCAGFQPDAMCNIEKNENYQPKYGYWVIGLEEGVKCSAFQDSSFHTPSVPFIVPLSVIICPDRVGVFLDYEACTVSFFNITNHGFLIYKFSHCSFSQPVFPYLNPRKCGVPMTLCSPSS [human TRIM5α, 8-codon deletion at 330] | 3.19 ± 3.6 |
